Test results reported in PMC4336329 (PLoS ONE, 2015).
Hit rate of the full screen: of about 310,000 compounds, about 14,000 (4.5%) showed an effect of 50% or more. The effect is printed as a negative number. This is one part of the list.

biological target: human ether-à-go-go-related gene (hERG) potassium channel (human, UniProt Q12809); assay: primary screen, population patch clamp on CHO cells stably expressing hERG
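Further: peak tail current of the secondary pulse compared with the same well before compound.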

human ether-à-go-go-related gene (hERG) potassium channel, sequence (Q12809 whole entry, looked up): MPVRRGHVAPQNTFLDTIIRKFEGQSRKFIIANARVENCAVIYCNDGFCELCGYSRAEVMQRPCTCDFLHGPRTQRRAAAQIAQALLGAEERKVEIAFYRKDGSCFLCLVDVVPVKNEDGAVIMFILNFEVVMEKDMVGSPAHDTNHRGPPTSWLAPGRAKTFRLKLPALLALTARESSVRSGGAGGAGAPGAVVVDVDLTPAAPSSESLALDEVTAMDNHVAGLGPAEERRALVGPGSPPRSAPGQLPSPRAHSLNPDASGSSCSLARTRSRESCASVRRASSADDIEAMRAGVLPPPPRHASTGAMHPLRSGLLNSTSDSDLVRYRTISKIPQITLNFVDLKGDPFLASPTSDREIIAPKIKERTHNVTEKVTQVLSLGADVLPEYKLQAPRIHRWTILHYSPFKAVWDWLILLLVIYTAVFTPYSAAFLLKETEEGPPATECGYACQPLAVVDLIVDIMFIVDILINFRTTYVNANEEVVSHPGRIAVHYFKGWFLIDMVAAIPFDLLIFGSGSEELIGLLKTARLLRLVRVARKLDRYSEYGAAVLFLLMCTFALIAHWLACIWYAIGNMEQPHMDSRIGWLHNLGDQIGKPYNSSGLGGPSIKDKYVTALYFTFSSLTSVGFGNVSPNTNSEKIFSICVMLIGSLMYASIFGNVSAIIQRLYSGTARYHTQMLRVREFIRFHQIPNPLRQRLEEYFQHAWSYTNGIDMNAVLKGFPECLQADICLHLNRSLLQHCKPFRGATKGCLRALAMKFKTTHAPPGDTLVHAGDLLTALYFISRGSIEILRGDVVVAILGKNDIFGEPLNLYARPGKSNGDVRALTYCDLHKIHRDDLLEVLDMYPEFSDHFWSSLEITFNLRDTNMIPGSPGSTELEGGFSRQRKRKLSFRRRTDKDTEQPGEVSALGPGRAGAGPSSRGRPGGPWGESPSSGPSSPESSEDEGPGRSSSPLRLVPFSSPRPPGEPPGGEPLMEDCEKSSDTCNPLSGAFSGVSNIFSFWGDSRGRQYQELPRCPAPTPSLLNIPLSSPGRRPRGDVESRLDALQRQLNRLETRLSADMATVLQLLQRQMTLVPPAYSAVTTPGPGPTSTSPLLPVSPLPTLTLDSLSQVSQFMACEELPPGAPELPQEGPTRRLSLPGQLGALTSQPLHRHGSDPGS

Structure (SMILES)	hERG current change (%, negative = inhibition) at 10uM [%]
COc1ccc(CCN2C(=O)CC(NNC(=O)c3cccc(O)c3)C2=O)cc1 (centres unmarked)	10.6
C=CCn1c(SCC(=O)NC(=O)c2cccc([N+](=O)[O-])c2)nnc1-c1ccccc1F	-15.5
Cc1nn(-c2ccccc2)c2c1C1(C(=O)N(C(C)C)c3ccccc31)C(C#N)=C(N)O2 (centres unmarked)	-1.88
CCOc1ccc(C(=O)NC(=S)Nc2cccc(S(=O)(=O)NC3=NCCC3)c2)cc1	-0.298
CCOC(=O)c1c(C)[nH]c(C(=O)OCc2c(C)noc2C)c1C	8.68
Cc1nn(CCCC(=O)NCCc2ccccc2)c(C)c1[N+](=O)[O-]	-18.7
Cc1ccc(C)c(OCC(=O)Nc2cc(NC(=O)COc3cc(C)ccc3C)cc(C(=O)O)c2)c1	15.7
CCN(CC(=O)Nc1ccc(OC)cc1)CC(=O)Nc1sc2c(c1C(=O)OC)CCCC2	3.39
CC(C)C(NC(=O)c1ccccc1)C(=O)OCC(=O)N1CCCC1 (centres unmarked)	-2.42
CCCc1cc(=O)[nH]c(SCC(=O)NCCCC(=O)OCC)n1	-0.482
CCOc1ccc(-n2c(-c3ccco3)nc3c(cnn3-c3ccc(C)cc3)c2=O)cc1	14.3
CCOc1cc(N2CCOCC2)c(OCC)cc1NC(=O)CN1CCN(Cc2ccc3c(c2)OCO3)CC1.Cl	-55.8
CC(=O)Nc1ccc2nc(NC(=O)C(Cl)(Cl)Cl)sc2c1	31.1
CC(=O)Nc1ccc(S(=O)(=O)NC2(C(F)(F)F)C(=O)Nc3c2c(=O)[nH]c(=O)n3Cc2cccnc2)cc1 (centres unmarked)	23.3
O=C(Nc1ccc2c(c1)OCCO2)c1cccs1	12.4
COc1ccc(CNC(=O)C(C)OC(=O)C23CC4CC(CC(O)(C4)C2)C3)cc1 (centres unmarked)	21.4
O=C(OCC(=O)c1c[nH]c2ccccc12)c1cccc([N+](=O)[O-])c1	0.167
O=C(CSc1ncnc2c1oc1ccccc12)NCC1CCCO1 (centres unmarked)	5.26
CCOc1cccc2sc(N(CCN(C)C)C(=O)c3ccc4c(c3)OCCO4)nc12.Cl	-53.5
COCCNC(=O)N1[C@H]2CC[C@@H]1C(C(=O)OC)=C(c1cccc(C#N)c1)C2	13.2
CN(C)c1ccc(C(=O)N2CCCC(N3CCN(Cc4ccc5c(c4)OCO5)CC3)C2)cc1 (centres unmarked)	-82.3
Cc1cc(C)n(CCOC(=O)c2sc3ccccc3c2Cl)n1	20.5
S=C(c1ccc2c(c1)OCO2)N1CCCCCC1	-3.92
O=C(NCc1ccccc1)c1cnc(-c2ccccn2)nc1C(F)(F)F	10.9
COc1cc(CNS(=O)(=O)CCl)cc(OC)c1OC	12.7
CCN(CC)c1ccc(/C=N/Nc2nn[nH]n2)cc1	9.9
COc1ccc2c(c1)CC/C(=C\c1ccc(C)o1)C2=O	8.29

Structure (SMILES)	hERG current change (%, negative = inhibition) at 10uM [%]
O=C(O)c1ccccc1C(=O)Nc1ccc(Nc2ccc([N+](=O)[O-])cc2[N+](=O)[O-])cc1	17.5
CCN1CCN(c2ccc(S(=O)(=O)N3CCCCC3)cc2NC(=O)c2ccc([N+](=O)[O-])o2)CC1	-75.9
O=C(CN1C(=O)NC2(CCCCC2)C1=O)Nc1ccc(S(=O)(=O)N2CCOCC2)cc1	1.2
O=C(NC1CCN(C(=O)Nc2ccc(F)cc2)CC1)c1ccc(F)cc1	-24.9
O=C(CCNC(=O)c1ccc([N+](=O)[O-])cc1)NCCc1ccc(Cl)cc1	-40.4
C=CCN(c1ccccc1)S(=O)(=O)c1cccc(C(=O)N2CCCC2)c1	-16.7
CN(Cc1ccc(OC(F)F)cc1)C(=O)C1CCN(S(=O)(=O)c2ccc3c(c2)OCCO3)CC1	-45.9
O=c1c(Cl)c(N2CCN(c3ccc(F)cc3)CC2)cnn1-c1nc2ccccc2s1	3.66
COc1ccccc1C(=O)Nc1ncc2c(n1)CC(c1ccco1)CC2=O (centres unmarked)	-23.5
CCCc1sc(N/N=C/c2ccccn2)nc1-c1ccc(Br)cc1	5.39
CCOC(=O)c1ccc(NC(=O)N2C[C@@H]3C[C@@H](C2)c2cccc(=O)n2C3)cc1	10.5
Cc1onc(-c2ccccc2)c1C(=O)NNC(=S)NC(=O)c1ccc(Br)cc1	16.1
CCCC(=NCCc1c(C)[nH]c2ccccc12)C1=C(O)CC(c2ccccc2)CC1=O (centres unmarked)	-22.2
CCn1c(-c2ccccc2)ccc(C#N)c1=O	-3.7
CCN(C(=O)COC(=O)c1c(-c2ccccc2)noc1C)C1CCS(=O)(=O)C1 (centres unmarked)	-22.2
O=C1CN(S(=O)(=O)c2ccc(Cl)cc2)CC(=O)N1CCc1ccccc1	-2.24
Cn1ccnc1SCC(=O)Nc1cccc([N+](=O)[O-])c1	4.15
CC1CCN(C(=O)CSc2nnc3c(n2)[nH]c2ccccc23)CC1	-0.738
O=C(Nc1ccccc1C(=O)N1CCN(Cc2ccccc2)CC1)c1ccc(F)cc1	-23.5
Cc1ccc(C(=O)NC(C)c2ccc(C)c(C)c2)s1 (centres unmarked)	-20.3
Cc1cc(C(=O)CSc2nncn2C)c(C)n1-c1ccccc1	3.47
COC(=O)c1c(NC(=O)CN(c2ccccc2)S(C)(=O)=O)sc2c1CCCC2	17.8
CCOC(=O)C1C(=O)NC(c2ccccc2)=NC1c1ccc(OC)cc1 (centres unmarked)	-12.2
CCOC(=O)Cc1c(C)nc2c(C#N)c(C)nn2c1C	-12.6
COc1cccc(C(=O)N2CCCC(CCC(=O)NCc3ccc(F)c(F)c3)C2)c1 (centres unmarked)	-17.5
Cc1ccc(OCC(=O)Nc2ccccc2N2CCCC2)c(C)c1	-3.14
